Out of some 350,000 compounds screened, about 31,000 (8.9%) were called active. Inconclusive results, whose numbers are uncertain, are shown with a selection of clear calls. The call rests on the fitted dose curve; in most records, active means well fitted inhibition curve with a large enough effect; inconclusive means small, poorly fitted or top-dose-only effect; inactive means no such curve, though single readings can be large or run the other way. Potencies of inconclusive entries are doubtful fits and often do not repeat.
These compounds were tested against Histone-lysine N-methyltransferase EHMT2 (Homo sapiens) (UniProt Q96KQ7) (assay: qHTS Assay for Inhibitors of Histone Lysine Methyltransferase G9a). Settings: G9a H3K9 monomethylation, AlphaScreen, 2 h; activity, negative = inhibition: at 59 µM (top of the series) unless noted.
Chain of UniProt Q96KQ7 (Q96KQ7 whole entry, looked up): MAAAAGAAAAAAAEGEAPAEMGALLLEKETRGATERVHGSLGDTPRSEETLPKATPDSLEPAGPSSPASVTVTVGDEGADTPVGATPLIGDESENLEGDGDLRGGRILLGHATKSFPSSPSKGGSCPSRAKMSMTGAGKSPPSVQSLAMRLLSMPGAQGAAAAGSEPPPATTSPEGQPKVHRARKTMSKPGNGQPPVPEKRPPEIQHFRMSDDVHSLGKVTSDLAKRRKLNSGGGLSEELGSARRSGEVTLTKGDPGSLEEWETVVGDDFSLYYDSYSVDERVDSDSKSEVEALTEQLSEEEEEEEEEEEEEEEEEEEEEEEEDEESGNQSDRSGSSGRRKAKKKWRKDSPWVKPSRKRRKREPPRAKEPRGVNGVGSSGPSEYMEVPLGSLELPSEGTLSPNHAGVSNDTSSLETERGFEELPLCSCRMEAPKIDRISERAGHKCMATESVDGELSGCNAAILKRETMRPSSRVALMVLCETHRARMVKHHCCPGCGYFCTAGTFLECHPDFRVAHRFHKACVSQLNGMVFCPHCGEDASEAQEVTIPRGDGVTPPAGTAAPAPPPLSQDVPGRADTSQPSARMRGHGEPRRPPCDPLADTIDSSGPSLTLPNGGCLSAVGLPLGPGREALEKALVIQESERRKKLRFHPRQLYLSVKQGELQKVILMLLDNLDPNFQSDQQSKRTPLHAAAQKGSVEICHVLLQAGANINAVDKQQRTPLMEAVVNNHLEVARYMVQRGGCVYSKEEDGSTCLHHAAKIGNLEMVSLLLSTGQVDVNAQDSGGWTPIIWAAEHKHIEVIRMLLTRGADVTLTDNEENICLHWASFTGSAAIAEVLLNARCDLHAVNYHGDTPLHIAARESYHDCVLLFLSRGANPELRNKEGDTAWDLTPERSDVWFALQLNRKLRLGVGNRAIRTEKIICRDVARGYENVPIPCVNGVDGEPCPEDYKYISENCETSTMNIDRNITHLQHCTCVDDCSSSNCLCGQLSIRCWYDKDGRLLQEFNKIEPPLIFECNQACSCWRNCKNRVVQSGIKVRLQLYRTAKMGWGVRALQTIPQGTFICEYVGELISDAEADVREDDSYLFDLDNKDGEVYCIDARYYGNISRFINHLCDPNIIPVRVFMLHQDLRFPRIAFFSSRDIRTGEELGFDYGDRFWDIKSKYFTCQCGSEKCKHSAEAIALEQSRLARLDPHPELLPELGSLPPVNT
In short: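 Signal arises when biotinylated H3K9 peptide, once monomethylated, bridges streptavidin donor and antibody-captured acceptor beads. Enzyme at 20 nM was preincubated 15 min with test compounds; peptide 500 nM and SAM 20 uM then reacted for 2 h.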
In the case of `O=C(Nc1ccc(-c2cc(C(F)(F)F)nn2-c2ccccc2)cc1)c1cccc(F)c1`, the “activity, negative = inhibition” value is reported as inactive: 4.56%. With `O=S(=O)(Nc1cccc(-c2nc3cccnc3s2)c1)c1ccc2c(c1)OCCO2` the Potency was inconclusive: 28.2 µM [inhibitor, single point]. In the case of `N#Cc1c(SCC(=O)Nc2cccc(F)c2)sc2c(O)cc(=O)[nH]c12`, the Potency is reported as inconclusive: 20 µM [inhibitor, single point]. In the case of `N#Cc1c(-c2cccs2)nc(SCC(=O)c2cccs2)[nH]c1=O`, the Potency is reported as inconclusive: 89.1 µM [inhibitor, single point]. In the case of `CCN(CC)C(=O)c1ccc(Oc2ccc([N+](=O)[O-])cc2Cl)cc1`, the Potency is reported as inconclusive: 31.6 µM [inhibitor, partial curve, poor fit]. `CCc1ccc(NC(=O)CC2C(=O)NCCN2C(=S)Nc2ccccc2)cc1` (stereo not given) was tested, and the Potency was inconclusive: 14.1 µM [inhibitor, partial curve, poor fit]. `O=C(NC(=S)Nc1ccccn1)c1ccccc1` was tested, and the Potency was active: 50.1 µM. With `CCN(c1ccc(OC)cc1)S(=O)(=O)c1ccc(-c2ccc(=O)[nH]n2)o1` the Potency was inconclusive: 50.1 µM [inhibitor, partial curve, poor fit]. In the case of `CCc1nccn1S(=O)(=O)c1ccc2ccccc2c1`, the Potency is reported as inconclusive: 79.4 µM [inhibitor, single point]. `CCOC(=O)c1c(C)[nH]c(C)c1S(=O)(=O)NCC(=O)Nc1cccc(C(F)(F)F)c1` was tested, and the “activity, negative = inhibition” value was inactive: 7.21%. For `COc1ccc(CCNC(=O)CCCCCN2C(=O)c3ccccc3C2=O)cc1`, the “activity, negative = inhibition” value was inactive: 19.6% [at 102 µM]. In the case of `CC(=O)c1ccc(N/N=C2/CCCNC2=O)cc1`, the “activity, negative = inhibition” value is reported as inactive: 25.3% [at 102 µM]. `COc1ccc(NC(=O)c2cc3cc(OC)ccc3oc2=N)cc1` was tested, and the activity, negative = inhibition was inconclusive: -66.4% [inhibitor]. For `Clc1ccc(Nc2nc(-c3cccnc3)cs2)cc1`, the Potency was inconclusive: 25.1 µM [inhibitor, single point]. `COCCNC(=O)Cn1cc(S(=O)(=O)Cc2ccccc2Cl)c2ccccc21` was tested, and the “activity, negative = inhibition” value was inactive: 19.3%. `COC1(OC)C(/C=C/c2ccc(Cl)cc2)C(C#N)(C#N)C1(OC)OC` (stereo not given) was tested, and the Potency was inconclusive: 17.8 µM [inhibitor, single point]. For `CCOC(=O)N1CCc2c(sc3c2c(=O)n(CCc2ccccc2)c(=O)n3Cc2cc(C)ccc2C)C1`, the Potency was inconclusive: 31.6 µM [inhibitor, single point]. For `CN(C)S(=O)(=O)c1ccc(N2C(=O)CC2(/C=C/c2ccccc2)C(=O)NC2CCCC2)cc1` (stereo not given), the Potency was inconclusive: 0.141 µM [inhibitor, full curve, poor fit]. For `O=C(Nc1ccccc1F)c1ccc2ncsc2c1`, the Potency was active: 44.7 µM. For `S=C(NCc1ccc2[nH]c3c(c2c1)CCCC3)Nc1ccccc1`, the Potency was inconclusive: 39.8 µM [inhibitor, partial curve, poor fit]. `Cc1cccc(-n2c(SCc3cc(=O)n4ccsc4n3)nc3ccccc32)c1` was tested, and the Potency was active: 5.01 µM. For `CCCCN(C(=O)CSCC(=O)Nc1cccc(C)c1)c1c(N)n(Cc2ccccc2)c(=O)[nH]c1=O`, the Potency was inconclusive: 79.4 µM [inhibitor, single point]. `COc1ccc(-n2c(=O)c3sc4ccccc4c3n(CC(=O)Nc3cccc(C)c3)c2=O)cc1` was tested, and the Potency was inconclusive: 2 µM [inhibitor, partial curve, poor fit]. In the case of `Cc1ccc(S(=O)(=O)NC(=O)N(C)C2CCCCC2)cc1`, the Potency is reported as inconclusive: 79.4 µM [inhibitor, partial curve, poor fit]. In the case of `Cc1ccc(-c2nnc(Nc3ccc(Br)cc3)c3ccccc23)cc1S(=O)(=O)N1CCOCC1`, the “activity, negative = inhibition” value is reported as inactive: -7.78%. With `Cc1nc(SC(C)C(=O)c2c(N)n(C)c(=O)n(C)c2=O)c2c(C)c(C)sc2n1` (stereo not given) the Potency was active: 7.08 µM. With `NS(=O)(=O)c1ccc(CCNC(=O)COc2ccc3c4c(c(=O)oc3c2)CCC4)cc1` the “activity, negative = inhibition” value was inactive: 2.09% [at 102 µM]. For `O=C(Cc1cccc2ccccc12)NN1C(=O)CSC1=S`, the Potency was inconclusive: 50.1 µM [inhibitor, partial curve, poor fit]. For `Cc1ccc(-c2nc3ccccc3[nH]2)cc1NC(=O)/C=C/c1ccco1`, the activity, negative = inhibition was inactive: -6.18% [at 2.33 µM]. With `CCc1ccccc1N(CC(=O)NCC1CCCO1)C(=O)CCC(=O)Nc1cc(C)on1` (stereo not given) the “activity, negative = inhibition” value was inactive: -6.17% [at 102 µM]. With `COc1ccc(NC(=O)Cn2c(=O)cnc3ccccc32)cc1S(=O)(=O)N1CCCCC1` the Potency was inconclusive: 25.1 µM [inhibitor, single point]. `O=C(Nc1ccccn1)c1ccc2c(c1)S(=O)(=O)c1ccccc1C2=O` was tested, and the “activity, negative = inhibition” value was inactive: 18.5%. `O=C(NNC1=C(C(=O)C(F)(F)F)CCC1)c1ccccc1Cl` was tested, and the Potency was inconclusive: 79.4 µM [inhibitor, single point]. In the case of `COc1ccccc1NC(=O)C1=C(C)Nc2nc(SCc3ccccc3)nn2C1c1ccccn1` (stereo not given), the “activity, negative = inhibition” value is reported as inactive: 6.51%. For `COc1ccccc1C(=O)N/C(=C/c1ccc(Br)cc1)C(=O)NCCCn1ccnc1`, the “activity, negative = inhibition” value was inactive: 0.129% [at 102 µM]. With `Cc1ccc(S(=O)(=O)NC2(C(F)(F)F)NC(=O)N(C)C2=O)cc1` (stereo not given) the Potency was inconclusive: 50.1 µM [inhibitor, partial curve]. For `Cn1c(=O)c2c(SCc3cccnc3)nc(C3CC3)nc2n(C)c1=O`, the Potency was inconclusive: 89.1 µM [inhibitor, single point]. With `Cc1ccc(S(=O)(=O)N2CCN(C(=O)CN3CCc4ccccc4C3)CC2)cc1` the Potency was inconclusive: 1 µM [inhibitor, partial curve, poor fit]. In the case of `Cc1cc(C(=O)N/N=C/c2ccc([N+](=O)[O-])s2)n[nH]1`, the “activity, negative = inhibition” value is reported as inactive: 6.94% [at 102 µM]. For `CC(=O)c1ccc(OCC(O)CN2CCN(Cc3ccccc3)CC2)cc1` (stereo not given), the Potency was inconclusive: 89.1 µM [inhibitor, single point]. For `N#CC(C#N)=Cc1c(N2CCN(c3ccccc3)CC2)nc2ccccn2c1=O`, the Potency was inconclusive: 20 µM [inhibitor, full curve]. In the case of `CC1(C)C(=O)N(OCc2ccccc2)C(C)(C)C(=O)N1OCc1ccccc1`, the “activity, negative = inhibition” value is reported as inactive: 7.99% [at 102 µM]. For `CCOC(=O)N1CCN(C(=O)CSCc2ccccc2)CC1`, the “activity, negative = inhibition” value was inactive: -4.14%. With `CCCCN(C)C(=O)C1CCN(Cc2cccc(OCc3ccccc3)c2)CC1` the Potency was active: 12.6 µM. For `COc1ccccc1CNc1nc2nc(C)c(Cl)c(C)n2n1`, the “activity, negative = inhibition” value was inactive: -20.8%. For `Cc1oc2c(c1C(=O)NCCCC(=O)O)CCCC2`, the “activity, negative = inhibition” value was inactive: -1.48% [at 102 µM]. For `O=C(CCC(=O)N1CC2CCCN2c2ccccc21)NCc1ccccc1Cl` (stereo not given), the “activity, negative = inhibition” value was inactive: -28.5%. In the case of `O=C1c2cccc3c([N+](=O)[O-])ccc(c23)C(=O)N1Cc1cccnc1`, the Potency is reported as inconclusive: 28.2 µM [inhibitor, partial curve, poor fit]. In the case of `C=CCN1CN(S(=O)(=O)c2cccc(Cl)c2)c2nc3ccccc3nc21`, the Potency is reported as active: 79.4 µM. For `CC(=O)N(Cc1ccc(F)cc1)C1=C(NCc2ccccc2)C(=O)c2ccccc2C1=O`, the Potency was active: 12.6 µM. With `CCOCC(=O)Nc1cc([N+](=O)[O-])ccc1OC` the “activity, negative = inhibition” value was inactive: 12.6% [at 102 µM]. For `COc1cc(-c2nc(-c3ccc(Br)o3)no2)cc(OC)c1OC`, the “activity, negative = inhibition” value was inactive: -9.21% [at 102 µM]. With `CN(CCO)c1cc(Sc2nc3ccccc3s2)c2nonc2c1[N+](=O)[O-]` the Potency was inconclusive: 10 µM [inhibitor, partial curve, poor fit]. In the case of `COc1ccc(N2CCN(c3ccc(-c4nc(-c5ccccc5C)no4)cc3[N+](=O)[O-])CC2)cc1`, the “activity, negative = inhibition” value is reported as inactive: -22.6%. In the case of `c1ccc(Cc2nnc(Sc3ccccc3)c3ccccc23)cc1`, the Potency is reported as inconclusive: 100 µM [inhibitor, single point]. `CC(=O)Nc1ccc(NCC(=O)c2ccccc2)cc1` was tested, and the Potency was inconclusive: 89.1 µM [inhibitor, single point]. With `CC(=O)c1cccc(S(=O)(=O)N(CCCO)Cc2cc3ccc(C)cc3[nH]c2=O)c1` the Potency was inconclusive: 89.1 µM [inhibitor, partial curve, poor fit]. `Cc1cnc(NC2=NCCC2)s1` was tested, and the Potency was active: 11.2 µM. In the case of `O=C1NC(=O)C(CC(=O)N(Cc2ccco2)C2(C(=O)NC3CCCC3)CCCCC2)N1` (stereo not given), the Potency is reported as inconclusive: 2 µM [inhibitor, full curve, poor fit]. With `Cc1ccc(NC(=S)Nc2cccnc2)c(S(=O)(=O)N2CCCCC2)c1` the Potency was inconclusive: 44.7 µM [inhibitor, partial curve, poor fit]. With `Cc1ccc(-c2nnc(N3CCCCC3)c3ccccc23)cc1S(=O)(=O)NCC1CCCO1` (stereo not given) the Potency was inconclusive: 50.1 µM [inhibitor, partial curve, poor fit]. For `Cc1cc(C)cc(OCC(=O)NC2=NCCS2)c1`, the “activity, negative = inhibition” value was inactive: 16.6%. With `O=C(CSc1nc2ccccc2c(=O)[nH]1)c1ccc(O)cc1O` the Potency was inconclusive: 89.1 µM [inhibitor, single point]. In the case of `COc1ccc(CCNC(=O)CSc2nc3cc(Cl)ccc3o2)cc1OC`, the Potency is reported as inconclusive: 2.24 µM [inhibitor, partial curve, poor fit]. In the case of `Nc1nnc(SCC(=O)Nc2cccc(S(=O)(=O)N3CCOCC3)c2)s1`, the Potency is reported as inconclusive: 89.1 µM [inhibitor, single point]. In the case of `CCN(Cc1ccncc1)C(=O)C1CCN(S(=O)(=O)c2cccs2)CC1`, the Potency is reported as inconclusive: 28.2 µM [inhibitor, single point]. `Cc1ccccc1CCNC(=O)c1ccc2c(c1)c(C)c(C)n2C` was tested, and the Potency was inconclusive: 31.6 µM [inhibitor, single point]. For `COc1cc(C2NC(=O)C(C#N)=C(S)N2c2ccccc2)ccc1OC(C)C` (stereo not given), the Potency was inconclusive: 35.5 µM [inhibitor, single point]. `CCOC(=O)c1oc2ccccc2c1CSc1nnnn1-c1ccc(OC)cc1` was tested, and the Potency was inconclusive: 79.4 µM [inhibitor, partial curve, poor fit]. In the case of `COc1ccc(-n2c(=O)[nH]cc(C(=O)Nc3ccc4c(c3)OCO4)c2=O)cc1OC`, the Potency is reported as inconclusive: 79.4 µM [inhibitor, single point].

Source: PubChem BioAssay AID504332 (National Center for Advancing Translational Sciences (NCATS), 2011)
Further: nearly all actives have a fitted effect of over 75% in size.
On the % scale 0 is the no-effect control and ±100 the full control effect; potency means the concentration at half of the fitted maximal effect; tags describe the fitted curve by direction and shape.
